# The supplement of paper PMC8728848
# This is one part of the list.
# How the values were obtained:
# Assay in all cases: glycan array binding signal (z-score within array); higher = stronger binding
# Conditions in all cases: glycan notation: IUPAC condensed, linker removed
# [1] = molecular target: Gal(b1-4)GlcNAc(b1-6)Gal(b1-4)GlcNAc
# Summary of the method: (§1)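 Glycan array data came from 3228 arrays in the Consortium for Functional Glycomics database, and only arrays with an available protein sequence were kept. Glycan names were put into IUPAC-condensed notation, and columns mapping to the same glycan were averaged. The binding signal is a within-array Z-score, averaged across arrays of one protein sequence run at different concentrations or buffers and across linkers. A negative Z-score can be read as non-binding.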
# [2] = molecular target: Gal(b1-4)GlcNAc(b1-6)GalNAc
# Summary of the method: as §1
# [3] = molecular target: Gal(b1-4)GlcNAc(b1-6)[Gal(b1-3)]GalNAc
# Summary of the method: as §1
# [4] = molecular target: Gal(b1-4)GlcNAc(b1-6)[Gal(b1-4)GlcNAc(b1-3)]GalNAc
# Summary of the method: as §1
# [5] = molecular target: Gal(b1-4)GlcNAc6P
# Summary of the method: as §1
# [6] = molecular target: Gal(b1-6)Gal
# Summary of the method: as §1
# [7] = molecular target: Gal3S(b1-3)GalNAc
# Summary of the method: as §1
# [8] = molecular target: Gal3S(b1-3)GlcNAc
# Summary of the method: as §1
# [9] = molecular target: Gal3S(b1-3)[Fuc(a1-4)]GlcNAc
# Summary of the method: as §1
# [10] = molecular target: Gal3S(b1-4)Glc
# Summary of the method: as §1
# [11] = molecular target: Gal3S(b1-4)Glc6S
# Summary of the method: as §1
# [12] = molecular target: Gal3S(b1-4)GlcNAc
# Summary of the method: as §1
# [13] = molecular target: Gal3S(b1-4)[Fuc(a1-3)]Glc6S
# Summary of the method: as §1
# [14] = molecular target: Gal3S(b1-4)[Fuc(a1-3)]GlcNAc
# Summary of the method: as §1
# [15] = molecular target: Gal3S(b1-4)[Fuc(a1-3)]GlcNAc6S
# Summary of the method: as §1
# [16] = molecular target: Gal3S4S(b1-4)GlcNAc
# Summary of the method: as §1
# [17] = molecular target: Gal3S6S(b1-4)GlcNAc
# Summary of the method: as §1
# [18] = molecular target: Gal3S6S(b1-4)GlcNAc6S
# Summary of the method: as §1
# [19] = molecular target: Gal4S(b1-4)GlcNAc
# Summary of the method: as §1
# [20] = molecular target: Gal4S6S(b1-4)GlcNAc
# Summary of the method: as §1
# [21] = molecular target: Gal6P(b1-4)GlcNAc
# Summary of the method: as §1
# [22] = molecular target: Gal6S(b1-3)GlcNAc
# Summary of the method: as §1
# [23] = molecular target: Gal6S(b1-3)GlcNAc6S
# Summary of the method: as §1
# [24] = molecular target: Gal6S(b1-4)Glc
# Summary of the method: as §1
# [25] = molecular target: Gal6S(b1-4)Glc6S
# Summary of the method: as §1
# [26] = molecular target: Gal6S(b1-4)GlcNAc
# Summary of the method: as §1
# [27] = molecular target: Gal6S(b1-4)GlcNAc6S
# Summary of the method: as §1
# [28] = molecular target: GalNAc(a1-3)Gal
# Summary of the method: as §1
# [29] = molecular target: GalNAc(a1-3)GalNAc
# Summary of the method: as §1
# [30] = molecular target: GalNAc(a1-3)GalNAc(b1-3)Gal(a1-4)Gal(b1-4)Glc
# Summary of the method: as §1
# [31] = molecular target: GalNAc(a1-3)GalNAc(b1-3)Gal(a1-4)Gal(b1-4)GlcNAc
# Summary of the method: as §1
# [32] = molecular target: GalNAc(b1-3)Gal
# Summary of the method: as §1
# [33] = molecular target: GalNAc(b1-3)Gal(a1-4)Gal(b1-4)GlcNAc
# Summary of the method: as §1
# [34] = molecular target: GalNAc(b1-3)Gal(a1-4)Gal(b1-4)GlcNAc(b1-3)Gal(b1-4)Glc
# Summary of the method: as §1
# [35] = molecular target: GalNAc(b1-3)Gal(a1-6)Gal(b1-4)Glc
# Summary of the method: as §1
# [36] = molecular target: GalNAc(b1-3)GalNAc
# Summary of the method: as §1
# [37] = molecular target: GalNAc(b1-3)GlcNAc
# Summary of the method: as §1
# [38] = molecular target: GalNAc(b1-4)Gal(b1-4)Glc
# Summary of the method: as §1
binder,measurement,setting,value
Epa23 (Candida glabrata) (protein) MGSSHHHHHHSSGLVPRGSHMIPNPFEGTINNFPSGCSPNHGLYNRGLTMELYNYSYIHPQSIQSYFNTSTLKKMEKGQCWDPSYLDVNYPRTGYKTHNRFAKVNGIDGILDFEFNPTRSCVPSKGQLPQNYNYPLQFTLSNFTMLLYGYFKPKVTAKHTFTIFADDLLFLNFGAGNAFDCCQQQDTIDDFGNYQAYALWGSDTQQNTLTVNLDANIYYPIRMFYNNRDFKGALNMYFTTDESNTKINDFSGYLFNIPDSSEGCPAHISYETECGNVSG,glycan array binding signal (z-score),[1],1.43
same,glycan array binding signal (z-score),[2],0.008
same,glycan array binding signal (z-score),[3],0.364
same,glycan array binding signal (z-score),[4],0.276
same,glycan array binding signal (z-score),[5],-0.217
same,glycan array binding signal (z-score),[6],-0.041
same,glycan array binding signal (z-score),[7],-0.15
same,glycan array binding signal (z-score),[8],-0.217
same,glycan array binding signal (z-score),[9],-0.217
same,glycan array binding signal (z-score),[10],-0.021
same,glycan array binding signal (z-score),[11],-0.201
same,glycan array binding signal (z-score),[12],-0.221
same,glycan array binding signal (z-score),[13],-0.103
same,glycan array binding signal (z-score),[14],-0.19
same,glycan array binding signal (z-score),[15],-0.097
same,glycan array binding signal (z-score),[16],-0.241
same,glycan array binding signal (z-score),[17],-0.168
same,glycan array binding signal (z-score),[18],0.186
same,glycan array binding signal (z-score),[19],-0.197
same,glycan array binding signal (z-score),[20],-0.239
same,glycan array binding signal (z-score),[21],0.494
same,glycan array binding signal (z-score),[22],0.393
same,glycan array binding signal (z-score),[23],2.1
same,glycan array binding signal (z-score),[24],6.7
same,glycan array binding signal (z-score),[25],11.8
same,glycan array binding signal (z-score),[26],5.69
same,glycan array binding signal (z-score),[27],13.5
same,glycan array binding signal (z-score),[28],-0.276
same,glycan array binding signal (z-score),[29],-0.278
same,glycan array binding signal (z-score),[30],-0.137
same,glycan array binding signal (z-score),[31],-0.219
same,glycan array binding signal (z-score),[32],-0.168
same,glycan array binding signal (z-score),[33],-0.231
same,glycan array binding signal (z-score),[34],-0.248
same,glycan array binding signal (z-score),[35],-0.237
same,glycan array binding signal (z-score),[36],-0.247
same,glycan array binding signal (z-score),[37],-0.294
same,glycan array binding signal (z-score),[38],-0.186
